Screen size: about 45,000 compounds; about 200 (0.44%) were called active. Roughly 7% stayed inconclusive and do not appear here. The call rests on the fitted dose curve; in most records, active means well fitted activation curve with a large enough effect; inconclusive means small, poorly fitted or top-dose-only effect; inactive means no such curve, though single readings can be large or run the other way. The list shows a part of the results.
Test: qHTS of TDP-43 Inhibitors: NCGC Sytravon Library Screen; further: 0% is about no effect; nearly all actives have a fitted effect of over 55% in size
Conditions: yeast TDP-43 toxicity rescue, BacTiter-Glo growth, 24 h; series mostly up to 46.1 µM; growth rescue (activation): at the top concentration
Method in brief: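 TDP-43-expressing yeast, pregrown in raffinose, seeded at OD600 0.02 in galactose medium with compound for 24 hr at 30 deg C. Growth read by BacTiter-Glo luminescence, so rescue of toxicity appears as activation.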
For `O=[N+]([O-])c1ccccc1Oc1cnc2ccccc2n1`, the “growth rescue (activation)” value was inactive: 9.45%. With `O=C(NCCCc1ccncc1)C1CCC(=O)N(Cc2ccc(Cl)cc2)C1` (stereo not drawn) the “growth rescue (activation)” value was inactive: -5.36%. In the case of `Cc1ccc(/C=N/NC(=O)c2ccco2)cc1`, the “growth rescue (activation)” value is reported as inactive: 13.2%. In the case of `Cc1cccc(C)c1N=C1NN=C(c2ccccc2F)CS1`, the “growth rescue (activation)” value is reported as inactive: 5.08%. For `COc1cc(C(=O)Nc2ccc(S(=O)(=O)N3CCOCC3)cc2)c([N+](=O)[O-])cc1OC`, the “growth rescue (activation)” value was inactive: 6.83%. For `O=C(O)CCC(=O)NCCc1cccc(Cl)c1`, the “growth rescue (activation)” value was inactive: 5.64%. For `O=C(O)CC(NC(=O)Nc1ccccc1)c1ccc(OC2CCCC2)cc1` (stereo not drawn), the “growth rescue (activation)” value was inactive: 7.66%. For `CCc1ccc(-c2csc(-c3c[nH]c4ccccc34)n2)cc1`, the “growth rescue (activation)” value was inactive: 48.9%. For `COc1ccc(-n2nnc3c(SCC(=O)N4CCCc5ccccc54)ncnc32)cc1`, the “growth rescue (activation)” value was inactive: -4.82%. In the case of `O=C(CSc1nc(O)c(C2CCCCC2)c(=O)[nH]1)Nc1ccc(F)cc1`, the “growth rescue (activation)” value is reported as inactive: 21.4%. For `Cc1csc(NC(=O)/C=C/c2ccc3c(c2)OCO3)n1`, the “growth rescue (activation)” value was inactive: 10.7%. For `O=C(O)C1C2CCC(C2)C1C(=O)Nc1cccc([N+](=O)[O-])c1` (stereo not drawn), the “growth rescue (activation)” value was inactive: 4.53%. With `CCCNC(=O)NC(=O)CSc1nncs1` the “growth rescue (activation)” value was inactive: -5.12%. In the case of `CCN(CC(=O)Nc1ccccc1C(F)(F)F)C(=O)CCc1c(C)[nH]c(=O)c(C#N)c1C`, the “growth rescue (activation)” value is reported as inactive: -20.1%. For `CCCSc1nsc(SCCC)c1C(N)=O`, the “growth rescue (activation)” value was inactive: 28.3%. For `Cc1cccc(-n2c(-c3ccccc3)c[nH]c2=S)c1C`, the “growth rescue (activation)” value was inactive: 9.44%. In the case of `COc1ccc(C(=O)NNC(=O)CSc2nnnn2-c2cc(OC)cc(OC)c2)cc1`, the “growth rescue (activation)” value is reported as inactive: -10.8%. With `Cc1cccc(C)c1NC(=O)CN(C)C(=O)c1ccccc1C(=O)N(C)Cc1ccccc1` the “growth rescue (activation)” value was inactive: 11.9%. In the case of `CCOc1ccc(C2c3[nH]c4ccccc4c3CCN2Cc2cccn2-c2ncccn2)cc1` (stereo not drawn), the “growth rescue (activation)” value is reported as inactive: -3.72%. For `Cc1cccc(NC(=O)CN2CCCCCC2)c1`, the “growth rescue (activation)” value was inactive: 16.5%. With `Cc1ccc(C)c(Nc2ncnc(N)c2[N+](=O)[O-])c1` the “growth rescue (activation)” value was inactive: -3.83%. With `COc1ccc(/C=C/c2nc3ccccc3c(=O)n2-c2cccc(C(=O)O)c2)cc1` the “growth rescue (activation)” value was inactive: -9.75%. With `NC(c1csc(Nc2ccc(C(=O)NCCO)cc2)n1)C1CCCCC1` (stereo not drawn) the “growth rescue (activation)” value was inactive: -2.82%. With `COCCN(CCOC)S(=O)(=O)c1ccc(C(=O)Nc2ccc([N+](=O)[O-])cc2OC)cc1` the “growth rescue (activation)” value was inactive: 13.1%. For `O=S(=O)(NCCCN1CCOCC1)c1ccc(Cl)cc1`, the “growth rescue (activation)” value was inactive: 1.7%. In the case of `O=C(NC1(C(F)(F)F)NC(=O)N(c2ccccc2F)C1=O)c1ccncc1` (stereo not drawn), the “growth rescue (activation)” value is reported as inactive: 11.4%. In the case of `Cc1cc(C(=O)NN=C(CCC(=O)O)c2cccs2)c(C)o1`, the “growth rescue (activation)” value is reported as inactive: 4.7%. In the case of `O=C(N/N=C/c1ccc[nH]1)c1ccccc1OCc1ccc(F)cc1`, the “growth rescue (activation)” value is reported as inactive: -10.8%. For `COc1ccc(S(=O)(=O)Nc2ccc(S(=O)(=O)NCC3CCCO3)cc2)cc1` (stereo not drawn), the “growth rescue (activation)” value was inactive: 3.2%. In the case of `Cc1ccc(S(=O)(=O)N2CCOCC2)cc1C(=O)N1CCN(c2ccc(C(F)(F)F)cn2)CC1`, the “growth rescue (activation)” value is reported as inactive: -0.929%. For `Cc1[nH]c2ccccc2c1C(=O)COC(=O)C1CC(O)CN1S(=O)(=O)c1ccc(Cl)cc1` (stereo not drawn), the “growth rescue (activation)” value was inactive: 2.89%. For `O=C(NCCCN1CCOCC1)C1CC(=O)N(c2ccccc2)C1` (stereo not drawn), the “growth rescue (activation)” value was inactive: 17.3%. With `COc1ccc2[nH]c(=O)c(CN(Cc3nnnn3CCc3ccccc3)CC3CCCO3)cc2c1` (stereo not drawn) the “growth rescue (activation)” value was inactive: 0.1%. In the case of `COc1ccc(-n2nc(C(=O)NCC(=O)N3CCN(Cc4ccccc4)CC3)c3ccccc3c2=O)c(OC)c1`, the “growth rescue (activation)” value is reported as inactive: 21.7%. In the case of `N#C/C(=C\c1ccncc1)c1nc2ccccc2c(=O)[nH]1`, the “growth rescue (activation)” value is reported as inactive: -1.17%. For `CCOc1ccc(C(=O)CCN2CCCCC2)cc1`, the “growth rescue (activation)” value was inactive: 19.8%. For `Cc1ccc(CSCCNC(=O)c2ccc(C)cc2)cc1`, the “growth rescue (activation)” value was inactive: -40.7%. With `CCOC(=O)c1cc(-c2ccccc2)n(CC(=O)Nc2ccc(OCC)cc2)c1C` the “growth rescue (activation)” value was inactive: 16.8%. In the case of `CN(CCC1CCCCO1)C(=O)c1cc(COc2ccc(F)cc2F)on1` (stereo not drawn), the “growth rescue (activation)” value is reported as inactive: 18.5%. In the case of `NC(=S)Nc1cnc2ccccc2c1`, the “growth rescue (activation)” value is reported as inactive: -0.664%. In the case of `COc1cc(/C=N/Nc2ccccc2)ccc1OC(=O)c1cccs1`, the “growth rescue (activation)” value is reported as inactive: 27.8%. For `COc1cccc(C2C3=C(CCCC3=O)Nc3[nH]n(-c4ccccc4)c(=O)c32)c1` (stereo not drawn), the “growth rescue (activation)” value was inactive: 9.83%. In the case of `CCCOc1ccc(N2C(=O)CC(NCc3cccnc3)C2=O)cc1` (stereo not drawn), the “growth rescue (activation)” value is reported as inactive: -4.87%. For `COc1ccc(N2CCN(C(=O)c3cc(=O)c4cc(C)c(C)cc4o3)CC2)cc1`, the “growth rescue (activation)” value was inactive: 3.57%. In the case of `Cc1ccccc1CC1C(=O)Nc2ccc(Br)cc21` (stereo not drawn), the “growth rescue (activation)” value is reported as inactive: 22.7%. In the case of `O=S(=O)(NCCCc1ccccc1)c1cccc2nsnc12`, the “growth rescue (activation)” value is reported as inactive: 18.1%. For `CN(C)S(=O)(=O)c1cc(NC(=O)c2ccc(-n3ccnc3)c([N+](=O)[O-])c2)ccc1Cl`, the “growth rescue (activation)” value was inactive: 10%. With `Cc1nn(-c2ccccc2)c(C)c1/C=N/NC(=O)CSc1nnc(SCc2ccccc2Cl)s1` the “growth rescue (activation)” value was inactive: 2.52%. With `CCOc1ccc(CC(=NCCO)C2=C(O)CC(C)(C)CC2=O)cc1OCC` the “growth rescue (activation)” value was inactive: -0.515%. With `COc1ccc(NC(=O)c2cccnc2SC)cc1OC` the “growth rescue (activation)” value was inactive: 11.1%. With `Cc1ccc(S(=O)(=O)N(CC(O)CN2C(=O)NC(C)(C)C2=O)c2cccc(C)c2)cc1` (stereo not drawn) the “growth rescue (activation)” value was inactive: 26.2%. With `CC12CCC(C(=O)N3CCC(Cc4ccccc4)CC3)(C(=O)C1=O)C2(C)C` (stereo not drawn) the “growth rescue (activation)” value was inactive: -6.38%. In the case of `COc1cccc2c(N/N=C/c3ccc(O)c(O)c3)cc(C)nc12`, the “growth rescue (activation)” value is reported as inactive: 13%. With `O=C(/C=C/c1ccc(S(=O)(=O)N2CCOCC2)cc1)N1CCN(c2ccc(F)cc2)CC1` the “growth rescue (activation)” value was inactive: -50.5%. With `O=C(COC(=O)c1ccco1)NCc1ccc(Cl)cc1Cl` the “growth rescue (activation)” value was inactive: 37.3%. With `CCOc1ccc(-c2nnc(SCC(=O)O)n2Cc2ccccc2)cc1` the “growth rescue (activation)” value was inactive: 4.87%. In the case of `Cc1oc(C(=O)O)cc1CSCc1ccoc1C(=O)O`, the “growth rescue (activation)” value is reported as inactive: 4.06%. For `COc1ccc2nc(NC(=O)CS(=O)(=O)c3ccc(C)cc3)sc2c1`, the “growth rescue (activation)” value was inactive: 6.3%. For `COc1ccc(/C=C(\C#N)c2nc3ccccc3[nH]2)cc1O`, the “growth rescue (activation)” value was inactive: 3.54%. In the case of `CC1CCCC(NC(=O)CSc2n[nH]c(=O)n2Cc2ccccc2)C1C` (stereo not drawn), the “growth rescue (activation)” value is reported as inactive: -21.6%. For `COC(=O)C1C(O)=C(C=NCC(C)N=CC2=C(O)C(C(=O)OC)C(C)(C)CC2=O)C(=O)CC1(C)C` (stereo not drawn), the “growth rescue (activation)” value was inactive: 14.9%. With `Fc1cccc(Cl)c1-c1nnc2ccc(C(F)(F)F)cn12` the “growth rescue (activation)” value was inactive: 11.7%. For `CC1=C(C(=O)OCCBr)C(c2cccc3ccccc23)NC(=O)N1` (stereo not drawn), the “growth rescue (activation)” value was inactive: 12.6%. In the case of `COc1ccc(NC(=O)[C@@H]2O[C@H](CO)[C@H](O)[C@H](O)[C@H]2O)cc1F`, the “growth rescue (activation)” value is reported as inactive: 6.75%. In the case of `CCC(C)NC(=O)C1CCN(S(=O)(=O)N2CCOCC2)CC1` (stereo not drawn), the “growth rescue (activation)” value is reported as inactive: 2.36%. For `Cc1ccnc(NS(=O)(=O)c2ccc(NS(=O)(=O)c3ccc([N+](=O)[O-])cc3)cc2)n1`, the “growth rescue (activation)” value was inactive: -21.2%. In the case of `Cc1cc(C)cc(C(=O)NCC(=O)OCc2cc([N+](=O)[O-])cc3c2OCOC3)c1`, the “growth rescue (activation)” value is reported as inactive: 15.9%. With `O=C(NNC(=O)C1CC1)c1cc(=O)[nH]c2ccccc12` the “growth rescue (activation)” value was inactive: -17.8%.
